# The supplement of paper PMC8183993
# “And” between values parts separate entries of the source, which are not always exact repeats. Identical values can stand only once. Counter-ions that a name gives are not always drawn. ± gives the standard deviation of the averaged measurements. In all, about 3,100 compounds were measured (“mean cytoplasmic OPP incorporation (global translation) relative to DMSO”: median about 100, lowest 2% from about 56 on). This is one part of the list.
# System: U2OS
# Experiment: mean cytoplasmic OPP incorporation (global translation) relative to DMSO (% of DMSO); higher = more protein synthesis
# Settings: 10 µM; 24 h
# Method: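 Primary image-based screen in U2OS cells: compounds at 10 uM for 24 h, then a 1 h o-propargyl-puromycin (OPP) pulse, click labelling, and high-throughput microscopy. Mean cytoplasmic OPP intensity and nuclei count were normalised to DMSO wells within each plate (DMSO = 100) and averaged over triplicate plates.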
row,Compound,mean cytoplasmic OPP incorporation
1,CC(=O)OCC(=O)[C@@]12N=C(C)O[C@@H]1C[C@H]1[C@@H]3CCC4=CC(=O)C=C[C@]4(C)[C@H]3[C@@H](O)C[C@@]12C [Deflazacort (Calcort)],114
2,CC(=O)OCC(=O)[C@@]12N=C(C)O[C@@H]1C[C@H]1[C@@H]3CCC4=CC(=O)C=C[C@]4(C)[C@H]3[C@@H](O)C[C@@]12C [Deflazacort],106
3,O=C(O)Cc1sc(-c2ccccc2)nc1-c1ccc(Cl)cc1 [Fentiazac],108
4,CC(C)(C)NC[C@H](O)c1ccc(O)c(CO)c1 [Levalbuterol hydrochloride],107
5,CCn1cc(C(=O)O)c(=O)c2cnc(N3CCCC3)nc21 [Piromidic acid],102
6,COc1ccc(Nc2ncnc3ccc(OC)cc23)cc1 [MPMQ hydrochloride],98.9
7,O=S(=O)(O)CCS [Mesna],101
8,CCOC(=O)OC(C)OC1=C(C(=O)Nc2ccccn2)N(C)S(=O)(=O)c2ccccc21 (stereo not given) [Ampiroxicam],105
9,O=C(Nc1c(Cl)cncc1Cl)c1ccc(OC(F)F)c(OCC2CC2)c1 [Roflumilast (Daxas)],102
10,CC(=O)[C@H]1CC[C@H]2[C@@H]3C[C@H](C)C4=CC(=O)CC[C@]4(C)[C@H]3[C@@H](O)C[C@]12C [Medrysone],105
11,CCCS(=O)(=O)Nc1ccc(F)c(C(=O)c2c[nH]c3ncc(-c4ccc(Cl)cc4)cc23)c1F [Vemurafenib (PLX4032)],118 ± 4.7
12,C[N+](C)([O-])CCNc1ccc(NCC[N+](C)(C)[O-])c2c1C(=O)c1c(O)ccc(O)c1C2=O [Banoxantrone dihydrochloride],87.9
13,CCCCNC(=O)NS(=O)(=O)c1ccc(C)cc1 [Tolbutamide],82.1 ± 25
14,O=C(O)c1cc(-c2ccc(F)cc2F)ccc1O [Diflunisal],99.5
15,c1ccc2c(-c3ccncc3)c[nH]c2c1 [Rockout],103
16,CCCCC(CC)CNC(=N)NC(=N)NCCCCCCNC(=N)NC(=N)NCC(CC)CCCC (stereo not given) [Alexidine dihydrochloride],72.4
17,Oc1c2ccccc2c2c3c(cccc13)N=N2,88.6 and 88.2
18,COC(=O)[C@@H]1[C@H]2C[C@H]3c4[nH]c5ccccc5c4CCN3C[C@@H]2CC[C@@H]1O [Yohimbine hydrochloride],102 ± 3.5
19,CC(C)C[C@H](NC(=O)[C@H]1O[C@@H]1C(=O)O)C(=O)NCCCCN=C(N)N,103
20,Cc1[nH]c(/C=C2\C(=O)Nc3ccc(S(=O)(=O)N(C)c4cccc(Cl)c4)cc32)c(C)c1C(=O)N1CCN(C)CC1,88.9
21,CN(C)Cc1ccc(-c2nc3cccc4c3n2CCNC4=O)cc1,122
22,CC1(C)NC(=O)N(c2ccc([N+](=O)[O-])c(C(F)(F)F)c2)C1=O [Nilutamide],98.6 ± 1.5
23,N[C@@H](CC(=O)Nc1ccc(Oc2cc(F)c(F)cc2Br)cc1)C(=O)O,100
24,Cc1nc(NC(=O)N2CCC[C@H]2C(N)=O)sc1-c1ccnc(C(C)(C)C(F)(F)F)c1,92.5 ± 5.2
25,COc1ccc2cc([C@@H](C)C(=O)O)ccc2c1 [(R) -Naproxen sodium salt],94.4

row,Compound,mean cytoplasmic OPP incorporation
1,Nc1nc(=O)c2c([nH]1)NC[C@@H](CNc1ccc(C(=O)N[C@@H](CCC(=O)O)C(=O)O)cc1)N2C=O [Folinic acid calcium salt],106
2,CC(C)NCC(O)COc1cccc2ccccc12 (stereo not given) [Propranolol hydrochloride],109
3,COc1ccc2cc1Oc1ccc(cc1)C[C@H]1c3cc(c(OC)cc3CCN1C)Oc1c(OC)c(OC)cc3c1[C@H](C2)N(C)CC3 [Tetrandrine],112
4,Nc1ncnc2c1c(-c1cnc3[nH]ccc3c1)nn2C1CCCC1,44.2
5,Cc1c[nH]c(=O)n(CCCN2CCN(c3ccccc3OCC(F)(F)F)CC2)c1=O,112
6,Cc1coc2c1C(=O)C(=O)c1c-2ccc2c(C)cccc12 [Tanshinone I],104
7,CCC1=C(C)CN(C(=O)NCCc2ccc(S(=O)(=O)NC(=O)N[C@H]3CC[C@H](C)CC3)cc2)C1=O [Glimepiride],100 ± 6.4
8,Cc1ccccc1-n1c(Cn2nc(-c3cccc(O)c3)c3c(N)ncnc32)nc2cccc(C)c2c1=O,102
9,C[C@@]12C[C@@]3(O)O[C@@H](O1)[C@]1(COC(=O)c4ccccc4)[C@H]3C[C@@]12O[C@@H]1O[C@H](CO)[C@@H](O)[C@H](O)[C@H]1O [Paeoniflorin],110
10,CCS(=O)(=O)CCn1c([N+](=O)[O-])cnc1C [Tinidazole],103
11,N#C[C@@H]1C[C@@H]2C[C@@H]2N1C(=O)[C@@H](N)C12CC3CC(CC(O)(C3)C1)C2,101
12,O=C1CCc2cc(OCCCCc3nnnn3C3CCCCC3)ccc2N1 [Cilostazol],106 ± 3
13,O=P(O)(O)C(Cl)(Cl)P(=O)(O)O [Clodronate],106
14,Oc1ccc(-c2nc3cc(O)cc(Br)c3o2)cc1,89.5
15,CCCCOc1cc(C(=O)NCCN(CC)CC)c2ccccc2n1 [Dibucaine],114
16,"C[C@H](CC[C@@H]1OC1(C)C)[C@H]1CC[C@H]2[C@@H]3CC=C4C[C@@H](O)CC[C@]4(C)[C@H]3CC[C@]12C [24(S),25-Epoxycholesterol]",112
17,CN(C)[C@@H]1C(O)=C(C(N)=O)C(=O)[C@@]2(O)C(O)=C3C(=O)c4c(O)ccc(Cl)c4[C@@](C)(O)[C@H]3C[C@@H]12 [Chlortetracycline hydrochloride],106
18,CC(C)[C@H](N)C(=O)N[C@H](C(=O)N[C@H](C(=O)O)C(C)C)C(C)C,114
19,CC(=O)N(CC(C)C(=O)O)c1c(I)cc(I)c(N)c1I (stereo not given) [Iocetamic acid],87.2
20,CCCCCCCCc1ccc(CCC(N)(CO)CO)cc1 [Fingolimod (FTY720)],91.9 ± 15
21,C[C@]12CC[C@@H]3c4ccc(O)cc4CC[C@H]3[C@@H]1CCC2=O [Estrone],101 ± 3.9
22,COC(=O)c1c(-c2cc(OC)c(OC)c(OC)c2)c2ccnc(OCc3ncccn3)c2c(=O)n1Cc1ccnc(C)c1 [T 0156 hydrochloride],101
23,c1ccc(N2CCN(Cc3nc4ccccc4[nH]3)CC2)nc1 [ABT 724 trihydrochloride],92.8
24,CC(C)c1cc(C(=O)N2Cc3ccc(CN4CCN(C)CC4)cc3C2)c(O)cc1O,87.6
25,CCOC(=O)C1=C[C@]2(CC)CCCN3CCc4c(n1c1ccccc41)[C@@H]32 [Vinpocetine],103 ± 16

row,Compound,mean cytoplasmic OPP incorporation
1,CCOC(=O)C1=C[C@]2(CC)CCCN3CCc4c(n1c1ccccc41)[C@@H]32 [Vinpocetine (Cavinton)],117
2,CNCCC(Oc1ccccc1OC)c1ccccc1 (stereo not given) [Nisoxetine hydrochloride],97.4 ± 6.5
3,CCCCC(C)(O)C/C=C/[C@H]1[C@H](O)CC(=O)[C@@H]1CCCCCCC(=O)OC (mixture of isomers) [Misoprostol],106
4,COc1ccccc1O [Guaiacol],99.2
5,O=NN(CCCl)C(=O)NC1CCCCC1 [Lomustine (CeeNU)],108
6,COc1cc(CCC(C)=O)ccc1O [Vanillylacetone],103
7,O=C(O)CCC(=O)Nc1ccc(S(=O)(=O)Nc2nccs2)cc1 [Succinylsulfathiazole],97.2
8,COc1cnc(NS(=O)(=O)c2ccc(N)cc2)nc1 [Sulfameter],107
9,Cn1cnnc1Sc1c([N+](=O)[O-])ncn1C,97.3
10,Cc1cccc(CN2CCN(C(c3ccccc3)c3ccc(Cl)cc3)CC2)c1 (stereo not given) [Meclozine dihydrochloride],116
11,Cc1nnc(C(C)C)n1C1C[C@H]2CC[C@@H](C1)N2CC[C@H](NC(=O)C1CCC(F)(F)CC1)c1ccccc1 (stereo in doubt) [Maraviroc],117
12,CCCCCCCN(CC)CCCC(O)c1ccc(NS(C)(=O)=O)cc1 (stereo not given) [Ibutilide fumarate],108
13,Cn1c(=O)cc(N2CCC[C@@H](N)C2)n(Cc2ccccc2C#N)c1=O [Alogliptin (SYR-322)],102
14,CS(=O)(=O)CCNCc1nc(-c2ccc3ncnc(Nc4ccc(OCc5cccc(F)c5)c(Cl)c4)c3c2)cs1,102
15,COc1ccc(-c2cc(=O)c3c(O)cc(O[C@@H]4O[C@H](CO[C@@H]5O[C@@H](C)[C@H](O)[C@@H](O)[C@H]5O)[C@@H](O)[C@H](O)[C@H]4O)cc3o2)cc1O [Diosmin],106 ± 2.2
16,COc1cc(Nc2ncc(F)c(Nc3ccc4c(n3)N(COP(=O)(O)O)C(=O)C(C)(C)O4)n2)cc(OC)c1OC [R788 (Fostamatinib)],78.4
17,COc1cc(Nc2ncc(F)c(Nc3ccc4c(n3)N(COP(=O)(O)O)C(=O)C(C)(C)O4)n2)cc(OC)c1OC,82.8
18,COC1=C2C[C@@H](C)C[C@H](OC)[C@H](O)[C@@H](C)/C=C(\C)[C@H](OC(N)=O)[C@@H](OC)/C=C\C=C(/C)C(=O)NC(=CC1=O)C2=O [Geldanamycin],92.4 ± 6.7
19,CCOC(=O)c1ncc2[nH]c3cccc(OC(C)C)c3c2c1C,95.8
20,CN1CC2c3ccccc3Oc3ccc(Cl)cc3C2C1 (stereo not given) [Asenapine],103
21,CN1CC2c3ccccc3Oc3ccc(Cl)cc3C2C1 (stereo not given) [Asenapine maleate],99.9 ± 1.1
22,CNC(=O)Nc1ccc(-c2nc(N3CC4CCC(C3)O4)c3cnn(C4CCC5(CC4)OCCO5)c3n2)cc1,67.2
23,CC1CS(=O)(=O)CCN1/N=C/c1ccc([N+](=O)[O-])o1 (stereo not given) [Nifurtimox],103
24,c1ccc2[nH]c(-c3cscn3)nc2c1 [Tiabendazole],91.1
25,Cn1cc(-c2ccc3nnc(C(F)(F)c4ccc5ncccc5c4)n3n2)cn1,110
